About 60 (0.1%) of roughly 46,000 compounds were called active. Another 3% or so got no clear call; they are omitted. Calls follow the shape of the dose curve; as a rule, active = well fitted inhibition curve with a large enough effect; inconclusive = small, poorly fitted or top-dose-only effect; inactive = no such curve, though single readings can be large or run the other way. The list shows a part of the results.
Test: Primary qHTS assay for Inhibitors of ovarian cancer metastasis using an organotypic tumor microenvironment (TME) model. Also: nearly all actives have a fitted effect of over 65% in size.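 As to activity change, negative = inhibition: plate controls were DMSO wells for no effect and tomatine positive control wells for full effect.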
Details: SKOV3ip1-GFP adhesion/invasion on 3D omental model, fluorescence; series mostly up to 45.8 µM; activity change, negative = inhibition: at the top concentration
In short: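 qHTS, 4-pt dose (0.36-46 umol/L); SKOV3ip1-GFP, 1,200 cells/well, no FBS; primary omental fibroblast/mesothelial co-culture 48 h pre-grown; 2 h RT + 16 h 37 C; PBS wash, 4% PFA; GFP count 488/509 nm.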

Activity change, negative = inhibition, inactive:
O=C(COc1ccc(F)cc1)Nc1ccccc1C(=O)OCc1cc(=O)n2ccsc2n1 4.68%, COc1cc(NC(=O)C2=CC(c3ccco3)=NS(=O)(=O)N2C)cc(OC)c1OC -9.63%, Cc1ccc(C)c(N2CCN(C(=O)c3ccc4c(=O)n(CCc5ccccc5)c(=O)[nH]c4c3)CC2)c1 -2.15%, CCCSCCCNC(=O)CN1C(=O)COc2ccc(S(=O)(=O)N3CCCC3)cc21 9.54%, O=C(Nc1cc(-c2ccc(Cl)cc2)no1)c1ccc(F)cc1 -10.2%, NC(=O)c1ccccc1NC(=O)CN1c2ccccc2S(=O)(=O)c2ccccc21 6.51%, Cc1nc(-c2ccccc2)sc1CCNC(=O)C(=O)Nc1ccc(F)c(Cl)c1 -6.11%, O=C(Nc1sc2c(c1C(=O)NCc1ccccc1)CCCC2)c1cc(=O)c2ccccc2o1 0.799%, COc1nnc(-c2ccc(N3CCCCC3)c(NC(=O)c3ccccc3Cl)c2)c2ccccc12 4.16%, COc1cc(Cl)c(C)cc1NC(=O)Cn1c2ncccc2c(=O)n1-c1ccccc1 -7.48%, COc1cccc(N2CCN(C(=O)Cn3nc(C)n4c(cc5c(OC)cccc54)c3=O)CC2)c1 -6.82%, COCc1cc(C)nc2c1C(=O)NC(c1ccc(Br)cc1)N2Cc1ccccc1 (stereo not given) -12.8%, COC(=O)c1c(NC(=O)COc2ccc(Cl)cc2)sc(C)c1C -3.92%, CCOc1ccccc1C(=O)NCC(c1cccs1)S(=O)(=O)c1ccc(F)c(C)c1 (stereo not given) -9.77%, CCc1ccc(NC(=O)CSc2nc3c(c(=O)[nH]2)CN(Cc2ccc(C)cc2)CC3)cc1 -10.6%, O=C(NCc1ccc(Cl)cc1)C1CCN(c2ncnc3c2nc2n3CCCCC2)CC1 -2.31%, CCOC(=O)c1noc2ncnc(N3CCN(c4cccc(C(F)(F)F)c4)CC3)c12 46.7%, COc1ccc(Cn2c(=O)n(-c3ccc(OC)cc3)c(=O)c3c2c2cc(OC)ccc2n3C)cc1 7.18%, COc1cccc(-c2nc(SCC(=O)NCc3ccco3)c3c(=O)n(C)c(=O)n(C)c3n2)c1 2.23%, CC1CCN(C(=O)Cn2cc(SCC(=O)Nc3ccccc3)c3ccccc32)CC1 1.83%, O=C(CSc1c2c(nc3cc(Cl)ccc13)CCCC2)N1CCN(c2ccccc2)CC1 1.7%, CCOC(=O)c1c(-c2ccc(C)cc2)csc1NC(=O)c1cc(=O)c2cc(C)cc(C)c2o1 -10.3%, COc1ccc(-c2cc(C)no2)cc1S(=O)(=O)NCc1ccco1 -8.86%, CCCn1cc(S(=O)(=O)c2ccc(OC)cc2)c(=O)c2cc(F)c(N3CCCC(C)C3)cc21 (stereo not given) 30.9%, CC(=O)c1ccc(NC(=O)C2=CC(c3ccc(C)cc3)=NS(=O)(=O)N2C)cc1 -1.23%, Cc1ccc(S(=O)(=O)Cc2nc(-c3ccc(C(=O)NCc4ccccc4C)cc3)oc2C)cc1 -4.85%, CCOc1ccc(-c2nonc2NC(=O)c2oc3ccc(C)cc3c2C)cc1OCC -20.8%, O=C(Nc1cc(-c2ccccc2F)nn1-c1ccccc1)c1ccccc1Br -5.08%, CCCCCOC(=O)CSc1nc2sc3c(c2c(=O)n1-c1ccccc1)CC(C)(CC)OC3 (stereo not given) -14.3%, Cc1ccc(C(=O)Nc2nc3nc(-c4ccccc4)cc(=O)n3[nH]2)cc1 6.41%, Cc1cccc(CSc2nc(-c3cccc(C)c3)nc3c2Cc2c(CO)cnc(C)c2O3)c1 3.27%, Cc1ccc(CN2CCCN(Cc3c(C)cc(C)cc3C)S2(=O)=O)cc1 -2.87%, CCCSC1=NC2(CCN(C(=O)NC3CCCCC3)CC2)N=C1c1ccc(Cl)cc1 8.83%, CCOC(=O)c1cc(-c2ccccc2)n(CC(=O)Nc2ccc(CC)cc2)c1C -10.3%, CCCN(CCC)c1nn2c(=O)c(C(=O)NCc3cc(Br)ccc3OC)cnc2s1 9.41%, Cc1ccc(N2CCN(S(=O)(=O)c3c(C)[nH]c(=O)[nH]c3=O)CC2C)cc1 (stereo not given) -6.17%, COc1ccc(C)cc1NC(=O)COCc1cc(-c2ccc(F)cc2)on1 2.06%, CC(C)(C)C(=O)OCc1cc(=O)n2nc(C3CC3)sc2n1 0.319%, COc1ccc(OC)c(CCNC(=O)CCn2c(=O)c3cccn3c3ccc(F)cc32)c1 3.25%, COc1cc(NS(=O)(=O)c2ccc(N)cc2)nc(OC)n1 5.62%, Cc1ccc2c(=O)cc(C(=O)Nc3ccc(S(=O)(=O)N4CCCCCC4)cc3)oc2c1 4.2%, O=C(CSc1nc(=O)n(Cc2ccco2)c2c1CCC2)Nc1ccccc1C(F)(F)F 6.76%, CCCCNC(=O)c1ccccc1NC(=O)CN(c1ccccc1)S(=O)(=O)N(C)C 8.27%, CC(C)n1cnc2c(NCCCCCCNC(=O)OC(C)(C)C)nc(NCCO)nc21 -2.37%, Cc1ccc(CN2CCSc3ccc(C(=O)Nc4ccc(C)cc4)cc32)cc1 -12.1%, CCN(Cc1ccccc1)C(=O)Cn1c(=O)n(-c2ccc(Cl)cc2)c(=O)c2c(C)c(C)sc21 -17.7%, CCOC(=O)CNC(c1ccccc1)c1cc(Br)ccc1NC(=O)c1cccc(Cl)c1 (stereo not given) 6.21%, CCc1ccc(NC(=O)C2CCCN(S(=O)(=O)c3ccc(F)cc3)C2)cc1 (stereo not given) 1.54%, Cc1ccc(Cl)cc1N1CCN(C(=O)c2cc(S(=O)(=O)N3CCCC3)c[nH]2)CC1 -23.5%, CC(=O)N1CCCc2cc(S(=O)(=O)N3CCC(C(=O)NCc4ccccc4)CC3)ccc21 6.16%, CCc1nnc(SCC(=O)N(CC)c2ccccc2)c2cc3oc(C)cc3n12 1.16%, COc1ccc(CC(=O)NCC(c2ccc(Cl)cc2)N2CCOCC2)cc1 (stereo not given) 5.02%, Cc1ccc(C)c(Cn2c(=O)n(-c3ccc(Cl)cc3)c(=O)c3c(C)c(C)sc32)c1 2.19%, Cc1ccc(Cn2c(=O)n(Cc3ccco3)c(=O)c3oc4ccccc4c32)cc1 -11.8%, Cc1ccc(S(=O)(=O)c2nnn3c2nc(NC2CCCCC2)c2sccc23)cc1 4.3%, Cc1ccccc1OCc1nc2ccccc2n1Cc1ccccc1Cl 0.778%, COc1ccc(C2=NS(=O)(=O)N(C)C(C(=O)N(C)Cc3ccccc3)=C2)cc1OC -5.86%, CC(C)CCn1c(Oc2ccccc2F)nc2c1c(=O)n(C)c(=O)n2C 1.8%, CCCCN(CC)C(=O)CCNS(=O)(=O)c1ccc2c(c1)c(=O)n(C)c(=O)n2C 7.69%, Cc1cccc(Nc2ccncc2S(=O)(=O)NC(=O)NC(C)C)c1 -7.33%, CC(=O)c1ccc(NC(=O)CSc2cn(CC(=O)N(C(C)C)C(C)C)c3ccccc23)cc1 -9.61%, COC(=O)c1ccc(C(=O)OC)c(NC(=O)c2cc3nc(-c4ccc(C)cc4)cc(C(F)(F)F)n3n2)c1 1.21%, COc1ccc(C(=O)NCc2ccc3c(c2)CCN3C(=O)c2ccccc2)cc1 5.63%, CCCNC(=O)CCCN1C(=O)CCn2nc(-c3cccn3C)cc21 0.329%, CCc1ccc2oc(-c3ccc(NC(=O)c4cc5ccccc5o4)cc3)nc2c1 4.68%, COCCCNC(=O)c1sc2nc(C)c(C(=O)Nc3ccc(C)cc3C)c(-c3ccccc3Cl)c2c1N 13.7%, CCc1cc(=O)oc2c(C)c3c(cc12)CN(CCc1ccccc1OC)CO3 4.31%, COCCNC(=O)c1nn(-c2ccc(C)cc2)c(=O)n(C)c1=O 1.89%, Cc1cc(C)cc(Nc2cc(C(=O)NCCCN(C)C3CCCCC3)c3ccccc3n2)c1 -23.2%, CC(=O)N[C@H]1[C@@H]([C@H](O)[C@H](O)CO)OC(C(=O)O)=C[C@@H]1N=C(N)N -8.39%

outcome, inactive:
COCCc1nn2c(=O)cc(COC(=O)c3ccccc3C)nc2s1, CCc1ccc(NC(=O)C(=O)NCC(c2cccnc2)N2CCc3ccccc3C2)cc1 (stereo not given), COc1ccc(Cl)cc1C(=O)NCc1nnnn1-c1ccccc1, CCc1ccc(-n2nnc(-c3nc(-c4ccc(C)cc4)no3)c2N)cc1, COc1cc(NC(=O)c2c3c(nc4ccccc24)C(=O)N(C2CCCCC2)C3)cc(OC)c1, COc1ccc(-n2c(SCc3ccccc3F)nc3c([nH]c4ccccc43)c2=O)cc1OC, CCN(CC)S(=O)(=O)c1ccc2c(c1)c(=O)c(C(=O)NCc1ccccc1Cl)cn2C, COc1ccc(Cn2ccn(Cc3cccc(Cl)c3)c(=O)c2=O)cc1, O=C(COc1ccccc1F)Nc1c(C(=O)Nc2cccc(F)c2)oc2ccccc12, O=C(CSc1nc2c(oc3ccccc32)c(=O)n1Cc1ccco1)Nc1ccccc1, Cc1ccc(CNC(=O)CCS(=O)(=O)c2cc3c(cc2C)NC(=O)CO3)cc1, COc1cc(Cl)c(C)cc1NC(=O)Cn1cc(S(=O)(=O)N2CCC(C)CC2)c2ccccc2c1=O, Cc1nn(Cc2noc(C(=O)NC(C)c3ccccc3)n2)c(C)c1Br (stereo not given), Cc1cccc(S(=O)(=O)c2cn(C)c3cc(N4CCN(c5ccc(F)cc5)CC4)c(F)cc3c2=O)c1, CC(C)c1ccc(NC(=O)CSC2=Nc3ccccc3C3=NC(CCC(=O)NCc4ccco4)C(=O)N23)cc1 (stereo not given), Cc1ccc(C)c(NC(=O)CSc2nc3c([nH]c4ccccc43)c(=O)n2-c2ccc(F)cc2)c1, CCOc1ccc(OCC)c(NC(=O)c2cnc(SC)nc2-c2ccccc2)c1, Cc1ccc(C)c(Oc2nc3c(c(=O)n(C)c(=O)n3C)n2Cc2ccccc2)c1, Cc1ccc(Cc2cn3cc(-c4ccccc4)nc3s2)cc1, CN(C)S(=O)(=O)c1ccc2c(c1)nnn2CCNC(=O)Nc1ccc(Cl)cc1, CCS(=O)(=O)N1CCc2cc(C(=O)Nc3cccc(C(C)=O)c3)ccc21, CCCNC(=O)C1Cc2cc(S(=O)(=O)N3CCCCCC3)ccc2N1C(C)=O (stereo not given), CCCNC(=O)Cn1c(=O)c2cccn2c2cccnc21, O=C(CCSCc1cnn(-c2ccccc2)c1-n1cccc1)NCc1ccccc1Cl, Cc1ccc(Cl)cc1N1CCN(C(=O)c2ccc(CS(=O)c3ccccc3)o2)CC1 (stereo not given)

Reference: PubChem BioAssay AID1963576 (National Center for Advancing Translational Sciences (NCATS), 2024)
